Source: the supplement of paper PMC10185492
Some of the results follow. These are enrichments in a pooled selection; single values are uncertain.

Test system: SARS-CoV-2 3CLpro (nsp5)
Assay: substrate phage enrichment score (protease-eluted vs HEPES control, +1 offset) (ratio); higher = better cleaved substrate
Conditions: selection round: 3; protease elution time: 0.5 h
Description: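 Random heptapeptide substrate phage display (M13 pIII fusion, heptapeptide between an N-terminal biotinylated AviTag GLNDIFEAQKIEWHE and pIII; phages immobilised on streptavidin) eluted by cleavage with 50 nM protease in 20 mM HEPES at 37 °C. Selected phages were NGS sequenced, and the enrichment score is (reads in protease sample + 1)/(reads in HEPES blank-selection control + 1).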

Substance | substrate phage enrichment score
RRTILHA | 36
TKAQEKA | 16
EQPHTME | 1.08
VNKAGIS | > 34
VRTEDAW | > 21
SAVWSPG | 2.7
PTEMSNQ | > 21
IEAAHHH | 1.26
RLYFQGG | 0.923
MQSHNQL | > 40
EPSFQGG | 2.83
SKAAHHH | 0.865
SENQSMR | 13.5
NLNAHLQ | > 26
DQKQGAR | 2.62
DRGCILN | 20.5
RERQFCD | 2.38
TTGVSRQ | > 32
MTPGSQY | 10
AASIILQ | > 35
KSHLQPH | 2.1
TATAHPQ | > 24
AHNYSPR | 5.33
RRCVARS | 1.41
TQCKYVG | 2.36

Substance | substrate phage enrichment score
SAVAHHH | 0.931
PCCSRLQ | > 78
NRAEDAW | 0.917
RADAASQ | 2.83
SQGKSNL | 1.55
IPAAHHH | 1.26
PRDTRDS | > 30
NSYTELQ | > 35
SGDLKPA | 2.25
NFQGGSA | 1.24
LQRAERR | > 33
SVWNTQL | 5.25
RYETSTG | 1.3
YEAAHHH | 1.13
QAMGSKS | > 33
GAPAHHH | 1.78
LTQVNQR | 4.33
LYVQGGS | 1.18
SGGSAAA | 0.409
LRGCSLR | > 28
QPYHIDR | 6.75
APLPVLQ | 13
RATTKLQ | > 94
RNHSTKS | 3.17
HLEQPFN | 6.75

Substance | substrate phage enrichment score
QSLDRSR | > 23
GWSAEHR | 1.2
RHFQGGS | 1
RRQASQP | 3.17
SAAAHHN | 1.07
NEAAHHH | 0.764
KTPSSLM | 14.5
SAAAPHQ | 0.5
HSQTPSE | 1.78
RNVSNLQ | 10.5
ALNPLLM | > 24
RFRQEER | 7.67
NRNQLSS | 7.33
ATQKTRG | > 32
RAAAHHQ | 0.635
ACRCEIQ | > 32
AESNSVP | 2.88
RLNFKGY | 0.0444
YAAAHHH | 1
TSEALTR | > 23
DRQRAMK | 2.9
TFPRQVP | 2.88
GPSLKYR | 1.83
SAEDCME | 6.17
RDRANHA | 1.38

Substance | substrate phage enrichment score
IQHECQQ | > 27
KRSCILQ | > 31
CRCCQLG | > 25
CGHLLKD | > 43
RSATTNQ | 1.44
SLNSPKP | 2.67
CAHSYLQ | > 28
GHQAVLQ | > 21
AKLQCCT | > 62
SHMPTQS | 0.024
GTLNTAP | 2.67
TARETGM | 5.05
FQSRCTE | 12
QHCHTVK | > 25
DNAAAHH | 1.42
PQAAHHH | 0.65
KCWSRNG | > 22
LMALPKA | 3.8
GALYKPA | 2
LGLPNLQ | > 39
TYFQGGS | 1.7
SQIGDET | 2.25
CVYRTNG | 1.4
RAAAQHQ | 1.31
SRDNSIP | 13

Substance | substrate phage enrichment score
TTRDPAR | > 33
LMQSPSR | > 25
QHGSIGR | 3
VLIQCGP | 2.73
RQRSCLQ | > 26
SENAVAQ | 5.5
SDQVNGQ | 10
EAAHHHH | 0.723
ATRLQAV | 56.5
DVNVSEQ | > 29
WRRTPAA | 10
TSSRNPR | 1.56
VHRNPLS | 2.83
DRAAAHH | 0.714
GEAAHHH | 0.76
DPQRNSR | 2
QQCPLDA | 14
PGAELGR | 2.67
SWCTVPA | > 29
SSAHHHH | 0.364
ARVKLRN | 15
ALLQANK | > 67
DSAAAHH | 0.66
GSMPQVP | > 24
DACRHIG | 0.114

Substance | substrate phage enrichment score
STSAPKR | 2
TSGYLSE | 28
TKWSHQQ | 0.2
CVAAHHH | 0.852
LSPNDVK | > 31
HTQRKHF | > 32
SAATADY | > 24
RDEKHTP | 0.278
TQKSQWS | 9.33
PHSKIQS | > 23
EKSGPGS | 2.33
SWRSVPG | > 38
THWVNKD | > 25
ACEQMWA | > 22
PRCWIRP | 8.33
QHEAALC | 4.86
FENGQVK | 13.5
SGKVGQL | > 43
KSTQPSK | 0.947
RELHAGP | > 30
RSWNTLS | 2.67
PAGLMWQ | > 22
LPCTEAS | 1.15
SSRPTSA | 0.353
ASPLNNN | 12

Substance | substrate phage enrichment score
TTSDRIL | 1.88
DPRDGHL | 1.56
RDWNPAM | 1.27
PSQGLRP | > 32
IDRPIHC | 0.2
NGGLNPG | 4.44
IERPSSR | > 24
PIDESSG | 3.8
QPVTNLQ | 16
SLPSAHR | > 43
PQVRCQE | 0.971
TRAEAPH | 2.43
RPVLQSH | > 29
YHHHGAA | 0.294
DASSAAT | 0.588
LSTIECQ | > 22
EIDTCLQ | > 25
SGDPVSR | > 47
PGDWGRP | 0.1
RACTLHS | > 58
RPPELME | 1.04
RMVVQLQ | > 57
TPIEGRD | 1.7
EDPARPS | 6.33
TGHVILH | > 82

Substance | substrate phage enrichment score
CQLNPIE | > 21
GAAAHQH | 0.778
LIFRVVV | 2.1
CQHNVGS | 0.857
CYESEMR | > 33
KSNEDLV | > 23
FQSHEPN | > 33
VYTGPRD | > 23
NNAPVNI | 7
VPAAHHH | 0.88
SPYFQGG | 4.56
LKSKRTP | 7
NTGPVLR | > 40
WQSPRKD | 13.5
FASGVKN | > 29
LTAAHHH | 1.55
ARPDRHR | > 24
TRAAHHH | 0.39
FNSSLQS | > 22
KDGSSTV | 3
TSLNQLC | 10
VGAAAHH | 1.07
SQKTYTR | 6.67
GVLESVA | 1
TTQDNER | 12

Substance | substrate phage enrichment score
YSAQRGK | 1.88
FGLCELQ | > 152
RETAHHH | 0.478
HCNAQTA | 4.71
VRQDAHR | 0.6
HNTTSAG | 4.83
TSAAAHH | 0.68
DVVQTLQ | > 28
HRAAHHH | 0.652
APAAHHH | 1
HCTNETG | 5.2
SQLRCHE | > 23
TTIQHPM | 2.07
KSHEVRQ | > 22
GSIHRRP | 12.5
LAAHHHH | 0.865
SEPMCDR | > 31
ITLQALG | 11.5
ALRHRNG | 1.75
QGGSAAA | 0.696
TARKWAQ | 6
RRGECRM | 15
LNNLLSQ | > 29
CDLSASR | 4.75
LCGPSRS | > 27

Substance | substrate phage enrichment score
WDNLNKR | 1.27
DIILKTG | > 35
RPAAICQ | 5.45
KPAVCPT | 0.833
GRSSGPL | 1.62
VSGQADR | > 34
NTRSCPH | > 26
RKHLCPP | 1
STSPFKG | 0.471
STMQIPR | 2.54
YQGGSAA | 1.15
SRQEMRA | 1
EERALPE | 0.923
QCHFSPK | 7.33
VQGGSAA | 0.737
TEPAIGV | > 29
RPKLVTG | 0.812
PEEQNTS | 30.5
TATPSLQ | > 51
KSPVLHP | > 26
IPGAWTS | 5.5
HPAPSHR | 16.5
VRCIPRP | > 25
TCTEMPR | 0.765
WSAAAHH | 0.778

Substance | substrate phage enrichment score
CFKQIQY | > 29
PCDHHHH | 6.2
WENSYGR | 0.115
PTRSCHA | 7
TQLSPGQ | > 32
RGAAHHH | 0.802
SSFTIMQ | > 63
VNDSRDG | > 30
SPFDCNR | > 25
CKDDKLG | > 21
SSGVPVL | 12.5
KPAAHHH | 1.06
DLSFSDC | > 24
WPCYRTS | > 35
VSRYDNV | 3.83
LTDKAHR | > 28
THPDGER | 2.08
KGADTAE | 2.5
KPGARCG | 128
ATTTLPT | > 27
FRHRSDA | 1.08
SGGHMGC | > 21
PGDTTAA | > 23
CAAAQQQ | 0.818
IQKPCAY | 4.6

Substance | substrate phage enrichment score
TCAGQPD | 2.83
VRPHIII | 1.18
VSCPMKH | 0.909
HPRCYIP | > 24
VPAHPRT | 11.6
QVRGTIR | 0.889
QQYGSEC | > 29
LTTSPAS | 6.6
ARNCVLQ | 13
HTLLQSQ | > 23
SLSAPST | 0.8
AEFKQPV | > 26
SQRVGNS | 1.18
PNFQGGS | 3.17
LTGTGYS | > 24
EQAKHRI | 11.5
RAIGGVA | > 25
SGRANLT | 11.5
ANRWTSR | 7.25
QYNADRP | 12
EAPYKPH | 7.67
MRCTLPA | > 26
HEKCYLQ | > 64
RVQTLRK | > 26
EPRSTRG | > 74

Substance | substrate phage enrichment score
PRPTTQK | 11.5
SPAAHHH | 1.05
STLTQDW | 17.5
HVAAHHH | 1.07
CSTQRPK | 6.33
KDLPNLQ | 54
LRPHIII | 1.42
SREKSQG | > 55
SKPLKGC | 2.75
GHYHLPC | > 21
CDASVSA | > 25
QATRLQS | > 40
DHRPKVT | > 42
VTRCVLQ | 11.5
SAPAHHH | 0.692
TTEQGMS | > 46
LENKVEQ | > 26
KDMRDSS | > 28
TDRANDA | 1.88
ESQAVLQ | 30.4
SQIGSPQ | 2.83
TNKCYTP | > 22
SGGYGNN | > 62
TADAEIY | 22
TRRPAQQ | 11.3

Substance | substrate phage enrichment score
LTGVDCA | > 59
EPYFQGG | 2
LRTSGCQ | 10.5
PHIHLRD | > 32
VNLTTPK | 0.353
GPTTELM | 7
RSAPTTT | 8
SVRLQSG | > 74
RPSSSME | 4
TNVPFLM | > 25
SNARGDR | 1.6
MPRCTQS | 3.6
QQSLICR | > 37
KSSPPAH | > 108
PTAAHHH | 0.804
CRRSIRD | 1.15
TKCPTRS | 3.6
WTAAHHH | 0.955
MKNPAHN | 7.75
NLTTKLH | > 22
KSCPLAA | 12
RTVPLNR | 6.17
SRHSLET | > 52
KNRTMLQ | > 51
ATRCVSK | 8.67

Substance | substrate phage enrichment score
QTPGPGL | 1.09
HEQYFQG | 16
HSWLNAC | 1.9
VWPRGPQ | > 42
EIGCRLM | > 27
RPGVDFR | 5.6
DYHGGNP | 1.67
PSQNRTT | > 24
NTRPKLQ | > 29
SAAANHH | 1.53
SATTRLQ | > 25
ESGGRIM | > 21
FNSGPQR | > 29
MPSRYSP | 24.5
CAAAHHQ | 0.803
ACEATFQ | > 28
SGSSWES | > 39
